The text below walks through data of ChEMBL document CHEMBL4888484, “Replenishing the malaria drug discovery pipeline: Screening and hit evaluation of the MMV Hit Generation Library 1 (HGL1) against asexual blood stage Plasmodium falciparum ,using a nano luciferase reporter read-out” (2022).

About 540 (0.36%) of roughly 150,000 compounds showed an effect of 50% or more. The list shows a part of the results.

The term % Inhibition denotes the relative decrease from the control value, in per cent.

In this experiment the test system is Plasmodium falciparum. Kind of experiment: Primary screen in NF54 nanoGlo assay, in single point, at 2uM, 72h; a lower Z score goes with more inhibition. In kind it is functional, Erythrocyte. The conditions noted are these: timepoint 72 hour.
With `COC(=O)c1cccc(C(=O)N2CCCC3(CCCCCC3)C2)n1`, the “% Inhibition” value is listed as 35% and the Z score is -3.9.
On the same counts, the results for `CCc1cnccc1[C@H](C)NC(=O)Cc1ccnc(OC)c1` are 7% and -0.92.
For `C#CCN(Cc1cccc(C)n1)C(=O)C(C)(C)c1ccc(OC)cc1`, the “% Inhibition” value is -7% and the Z score is 0.96.
The corresponding values for `Cc1ccc(C)c([C@@H](NC(=O)c2cc3ncccn3n2)c2cccnc2)c1` are 12% and -1.66.
The corresponding values for `CCc1nsc(NC2CCOC(c3cnn(C)c3)C2)n1` (centres undefined) are -14% and 1.86.
The corresponding values for `COc1nc2c(cc1C(=O)NCCc1cnn[nH]1)C(=O)N(C1CCCC1)C2` are -10% and 1.79.
In the case of `COCC(=O)Nc1ccc(N(C)C)c(CN(Cc2ccco2)C(=O)C(C)(C)C)c1`, the “% Inhibition” value is listed as -3% and the Z score was determined as 0.55.
On the same counts, the results for `CCCC[C@H]1C(=O)N(C)CCN1C(=O)NCc1nn(CC)c2ccccc12` are 2% and -0.39.
In the case of `Cc1c(-c2nnc(-c3ccco3)o2)oc2ccccc12`, the “% Inhibition” value worked out at 10% and the Z score was -1.07.
The corresponding values for `CC(=O)Oc1ccc(N2C(=O)C3C(Cc4c[nH]c5ccccc45)NC4(C(=O)Nc5c4ccc(C)c5C)C3C2=O)cc1` (centres undefined) are -14% and 1.83.
On the same counts, the results for `CCCn1c(=O)n(CCC(=O)N2CCN(S(=O)(=O)N3CC(C)OC(C)C3)CC2)c2ccccc21` (centres undefined) are -9% and 1.16.
The corresponding values for `COc1cccc(OC)c1OCc1nc(CN(CC(C)C)C(=O)c2ccccc2F)cs1` are -19% and 1.85.
For the compound `Cc1cccc(NC(=O)c2ccc(Nc3ccnc(-c4ccc(F)cc4)n3)cc2)c1`, the “% Inhibition” value is given as -10% and the Z score worked out at 0.9.
On the same counts, the results for `CN1CCN(Cc2nc(-c3ccoc3)no2)c2ccccc21` are -8% and 0.88.
Regarding `Cc1cccc(-c2ncc(C(=O)N3CCCCC3)c(N(C)C3CCCCC3)n2)c1`, the “% Inhibition” value is -12% and the Z score was determined as 1.12.
The corresponding values for `CC1=CC[C@H]2CN(Cc3cccc(OCCO)c3)C[C@H]2C1` are -8% and 1.48.
The corresponding values for `O=S(=O)(CCn1cc(-c2coc(-c3ccccc3)n2)nn1)N1CCCC1` are 3% and -0.57.
Take `O=C(C[C@H]1CCC2(CCOCC2)CO1)NCC1(CO)CCCC1`: the “% Inhibition” value is -7% and the Z score amounted to 0.74.
The corresponding values for `CCc1cnc(C)nc1NC1CCN(C(=O)Nc2ccccc2)CC1` are -13% and 2.02.
The corresponding values for `Cn1cccc1C(=O)C(=O)N1CCN(Cc2ccc3c(c2)OCO3)CC1` are -17% and 1.61.
On the same counts, the results for `CC1(C(=O)N[C@H]2c3ccccc3C[C@@H]2O)CCC(=O)NC1` (some centres undefined) are -12% and 1.47.
Take `Cc1cccc(C(=O)N2CCc3cc(CNS(=O)(=O)c4ccc(C)c(C)c4)ccc32)c1`: the “% Inhibition” value was -2% and the Z score is 0.24.
On the same counts, the results for `O=C(N[C@H]1CCN(c2ccc3nncn3n2)C1)OCCCc1cnc2ncnn2c1` are -3% and 0.41.
The corresponding values for `CCN(CCCNS(C)(=O)=O)c1ccc(C)cc1` are -20% and 1.72.
The corresponding values for `CC(C)(C)n1ncc2c(=O)[nH]c(N3CCCCCCC3)nc21` are 1% and -0.07.
For `Cc1nc(NC(=O)NCc2cnn(CCF)c2)nn1C`, the “% Inhibition” value is -8% and the Z score came out at 0.86.
On the same counts, the results for `CCc1nnc(-c2ccc3ccn(CC(=O)N4CCN(c5ccccc5)CC4)c3c2)o1` are -3% and 0.41.
The corresponding values for `COc1ccc(-n2nc(C)c3c(N4CCCN(C(=O)CC(C)C)CC4)nc(C4CC4)nc32)cc1` are -10% and 1.47.
On the same counts, the results for `COC[C@@]12CCN(C(=O)COc3ccccc3)C[C@@H]1CN(S(C)(=O)=O)C2` are -14% and 1.68.
Regarding `O=C(NCCc1ccncc1)c1ccc(OCC(=O)N2CCCCC2)cc1`, the “% Inhibition” value is reported as -4% and the Z score is on record as 0.75.
As to `Cc1ccc(C(=O)N(C)CCc2noc(-c3cc4cc(Cl)ccc4[nH]3)n2)cc1F`, the “% Inhibition” value is listed as -7% and the Z score came to 1.3.
The corresponding values for `COc1ccc(OC)c(CNC(=O)c2ccc3c(c2)C(=O)N(Cc2ccncc2)C3=O)c1` are 0% and 0.08.
On to `C=Cc1ccc(Cn2cnc3onc(C)c3c2=O)cc1`, for which the “% Inhibition” value is on record as -8% and the Z score is reported as 1.13.
The corresponding values for `Cc1ccccc1-n1nc(C(=O)N2CCCCCC2)nc1-c1ccccc1` are -13% and 2.54.
On the same counts, the results for `O=C(Nc1nncs1)NC(C1CC1)C1CC1` are 33% and -4.8.
On the same counts, the results for `O=C(N[C@H]1CCCN(Cc2cccc(O)c2)C1)c1cncnc1` are -18% and 1.61.
As for `O=C1O[C@H]2CN(c3ncccc3Cl)C[C@H]2N1C1CCCC1`, the “% Inhibition” value is recorded as -19% and the Z score was found to be 2.4.
As to `CN(C)CCNC(=O)Cn1c(-c2ccccc2)nn(-c2ccc(Cl)cc2)c1=O`, the “% Inhibition” value is -2% and the Z score is listed as 0.37.
On the same counts, the results for `CC(=O)N(C)CC(=O)OCCc1scnc1C` are 2% and -0.45.
The corresponding values for `O=C(COc1ccc2c(c1)OCO2)N1CCN(C(=O)c2ccco2)CC1` are -15% and 2.79.
The corresponding values for `CCCc1nnc(NC[C@@H]2C[C@H](CO)N(C)[C@@H]2c2ccccc2F)o1` are -15% and 1.57.
As for `COCc1cn([C@@H]2CC[C@H]3CCOc4ccccc4C(=O)N4CCN(Cc5ccc(Cl)c(F)c5)C[C@H]4C(=O)NC[C@H]2O3)nn1`, the “% Inhibition” value is reported as -7% and the Z score is reported as 0.9.
